The source gives no read counts; variants with many changes may rest on few reads.
B1: LINE1-mini (parent)
chain: GGCAGAGCUCAACACAGCGUGGCAAAGUGGCUGUGGCUAGACUGCC

Variants of: B1
Test: self-cleavage, relative activity (ratio to wild type); higher = more cleavage; in vitro, sequencing; the parent is a self-cleaving ribozyme

| Variant | self-cleavage |
| --- | --- |
| GGCAGAGCUCAACACAGCGUGGCAAAAUGACUGUGGAUAGACUGCC | 0.04 |
| GGCAGAGCUCAACACAGCGUGGCAAUGUGGCUGUGGUUAGACUUAC | 0.02 |
| GGCAGAGCUCAACACAGCGUGGCAAGGUGGCUGUCGCUAGACUGCA | 0.05 |
| GGCAGAGCUCAACACAGCGUGGCAAAAUGGCUCUGGCUAUACUGCC | 0.05 |
| GGCAGAGCUCAACACAGCGUGGCAAGGUGGGUGUGGCUAGAGUGCC | 0.04 |
| GGCAGAGCUCAACACAGCGUGGCAAUGUGGCUGUGGCGAAACUGCC | 0.12 |
| GGCAGAGCUCAACACAGCGUGGCAAACUGGCUAUGGCUAGACUGCU | 0.07 |
| GGCAGAGCUCAACACAGCGUGGCAAACUGCGUGUGGCUAGACUGCC | 0.08 |
| GGCAGAGCUCAACACAGCGUGGCAAGGUGGCUGUGGCUAGAAAGCC | 0.03 |
| GGCAGAGCUCAACACAGCGUGGCAAAAUGGCUGUGGUUGGACUGCC | 0.01 |
| GGCAGAGCUCAACACAGCGUGGCAAACUGGCUAUGGCUAGACUGUC | 1.33 |
| GGCAGAGCUCAACACAGCGUGGCAAACUGGCUAUGGCUAGACUGAC | 0.05 |
| GGCAGAGCUCAACACAGCGUGGCAAAAUGACUGUGAUUACACUGCC | 0.3 |
| GGCAGAGCUCAACACAGCGUGGCAAGGUGGUAGUCGGUAGACUGCC | 0.12 |
| GGCAGAGCUCAACACAGCGUGGCAAACAGGCUGAGGCUAGAAUGCC | 0.01 |
| GGCAGAGCUCAACACAGCGUGGCAACGUGGCUCUGGAUGGACUGCC | 0.01 |
| GGCAGAGCUCAACACAGCGUGGCAAAAUGGCUGUGGAUAGUCUGCC | 0.1 |
| GGCAGAGCUCAACACAGCGUGGCAAGGUGGCUGUGCGUAGCCUGCC | 0.05 |
| GGCAGAGCUCAACACAGCGUGGCAAUGUAGCUGUGGCUAGUCUGCC | 0.33 |

| Variant | self-cleavage |
| --- | --- |
| GGCAGAGCUCAACACAGCGUGGCAAUGUGCUUGUGGCUAGACUGCC | 0.26 |
| GGCAGAGCUCAACACAGCGUGGCAAACUAGCUGUGGCUAGACUGCA | 0.08 |
| GGCAGAGCUCAACACAGCGUGGCAAAAUGGCCGUGGCUAUACUGCC | 0.12 |
| GGCAGAGCUCAACACAGCGUGGCAAAAUGGGGGUGGCUAGACUGCC | 0.04 |
| GGCAGAGCUCAACACAGCGUGGCAAACUGGCUGUGGCUAGGCUACC | 0.04 |
| GGCAGAGCUCAACACAGCGUGGCAAUGUGGCUGUGUCUAGACUGCA | 0.08 |
| GGCAGAGCUCAACACAGCGUGGCAAUGUGGCUGUGCCUAAACUGCC | 0.04 |
| GGCAGAGCUCAACACAGCGUGGCAAAAUGUCUGUGGCGGGACUGCA | 0.01 |
| GGCAGAGCUCAACACAGCGUGGCAAUGUGGCUAUGGCUUGACUGCC | 0.04 |
| GGCAGAGCUCAACACAGCGUGGCAACGUGCGUGUGGCUAGACUGCC | 0.09 |
| GGCAGAGCUCAACACAGCGUGGCAAGGUGGCUUUGGCUCGACUGGC | 0.03 |
| GGCAGAGCUCAACACAGCGUGGCAAUGUGGCUGUUGCUAGACUGCA | 0.11 |
| GGCAGAGCUCAACACAGCGUGGCAAUGUGCCUGUGGCUAGACUGGC | 0.12 |
| GGCAGAGCUCAACACAGCGUGGCAAACUGGCUGUGGAUAGACGGCC | 0.21 |
| GGCAGAGCUCAACACAGCGUGGCAAAAUGGAUGUGUCUAGACUGCC | 0.08 |
| GGCAGAGCUCAACACAGCGUGGCAAACUGGUUGUGGCUAGACUGCG | 0.04 |
| GGCAGAGCUCAACACAGCGUGGCAAAAUGGCUUUAGCUAGACUGUC | 0.04 |
| GGCAGAGCUCAACACAGCGUGGCAAGGUGCAUGUGGCUAGACUGCC | 0.13 |
| GGCAGAGCUCAACACAGCGUGGCAAUGUGGCUGUAGCUAGAAUGCC | 0.01 |

| Variant | self-cleavage |
| --- | --- |
| GGCAGAGCUCAACACAGCGUGGCAACGUGGCUUUGUCUAGACGGCC | 0 |
| GGCAGAGCUCAACACAGCGUGGCAACGUGGCUGGGGCUAGACUGUC | 0.51 |
| GGCAGAGCUCAACACAGCGUGGCAAAAUCGCUGUGGCUGGACUGCC | 0.02 |
| GGCAGAGCUCAACACAGCGUGGCAAUGUGUCUGCGGCUAGAAUGCC | 0.29 |
| GGCAGAGCUCAACACAGCGUGGCAACGUAGCAGUGGCUAGACUGCC | 0.09 |
| GGCAGAGCUCAACACAGCGUGGCAAUGUGGUUGUGGCUAGACUGUC | 0.09 |
| GGCAGAGCUCAACACAGCGUGGCAAUGUGGCUGUGGCUGUCCUGCC | 0.11 |
| GGCAGAGCUCAACACAGCGUGGCAACGUGGCUAUGGCUAGAGUACC | 0.09 |
| GGCAGAGCUCAACACAGCGUGGCAAAACGGCUGUGGCUAAACAGCC | 0.03 |
| GGCAGAGCUCAACACAGCGUGGCAAACUGGCUAUGGCUAGAAUGCC | 0.08 |
| GGCAGAGCUCAACACAGCGUGGCAAAAUGGCUGUGUCAAGGCUGCC | 0.01 |
| GGCAGAGCUCAACACAGCGUGGCAAUGGUGCUGCGGCUAGACUGCC | 0.17 |
| GGCAGAGCUCAACACAGCGUGGCAAACUGGCUGUGCCUAGCCUGCC | 0.05 |
| GGCAGAGCUCAACACAGCGUGGCAAAAUGGCUGUGGCUAGACUGGG | 0.42 |
| GGCAGAGCUCAACACAGCGUGGCAACGUGGCGGCGGCUAGACUGCA | 0.03 |
| GGCAGAGCUCAACACAGCGUGGCAACGUGACCGUGGCUAGACUGCC | 0.18 |
| GGCAGAGCUCAACACAGCGUGGCAAGAUGGUUGUGGCUAGACUGCC | 0.62 |
| GGCAGAGCUCAACACAGCGUGGCAAACUGGAUGUGGCUAUACUGCC | 0.03 |
